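1) Cells in 96-well plates. 2) Compound, 48 h, 5 concentrations. 3) Linear interpolation between surrounding doses. 4) Unreached endpoint = highest concentration. Abbreviation: GI50, concentration required for 50% inhibition of growth.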 Active and inactive are the calls of the source. Cut-off read from the data, not from the text of the source: active = GI50 up to about 1.1 µM and inactive = higher. A value given as a limit tells only on which side of the number the result lay.

The subject of the assay is NCI-H322M. Kind of assay: NCI tumour cell line growth inhibition, 48 h.
For `CC(C)(C)O/N=C/c1cc(NC(=S)c2ccccc2)ccc1Cl`, the GI50 was inactive: 25.3 µM.

As to `CC1=NN(C(=O)c2ccccc2O)C(=O)/C1=C/c1ccc([N+](=O)[O-])cc1`, the GI50 was inactive: 1.39 µM.

As for `O=C(c1cc(Br)ccc1O)c1cc(Br)ccc1O`, the GI50 is inactive: 17 µM.

In the case of `c1ccc(C(c2ccccc2)c2ccncc2)cc1`, the GI50 was inactive: 60.5 µM.

For the molecule `COC(=O)[C@@H]1C[C@]2(Br)c3ccccc3N(S(=O)(=O)c3ccccc3)[C@@H]2N1C(=O)OC`, the GI50 is inactive: > 100 µM.

Take `COC(=O)/C=C(\C)CC(O)/C=C(\C)CCC=C(C)C` (centres undefined): the GI50 was inactive: > 100 µM.

Consider `CC(=O)OCC1=C(CCC#N)N2C(=O)C(NC(=O)Cc3cccs3)C2[S+]([O-])C1` (centres undefined), for which the GI50 is inactive: > 100 µM.

With `CCC(O)c1ccc(/N=C/c2ccccc2O)cc1` (centres undefined), the GI50 was inactive: > 100 µM.

As for `O=c1[nH]n(Cc2ccccc2Cl)c2ccc([N+](=O)[O-])cc12`, the GI50 was inactive: > 100 µM.

In the case of `COc1cc2cc(c1Cl)N(C)C(=O)C[C@H](OC(=O)[C@H](C)N(C)C(C)=O)[C@]1(C)O[C@H]1[C@H](C)[C@@H]1C[C@@](O)(NC(=O)O1)[C@H](OC)/C=C/C=C(/C)C2`, the GI50 was active: 0.0236 µM.

Take `Nc1nc(-c2ccco2)cc(-c2ccco2)n1`: the GI50 was inactive: 98.9 µM.

For `Cc1cc(N(CCCCl)CCCCl)ccc1/C=N/c1cccc(Cl)c1`, the GI50 is inactive: 19.1 µM.

Consider `[N-]=[N+]=CC(=O)C1CCCN1C(=O)c1ccccc1` (centres undefined), for which the GI50 was inactive: > 10 µM.

On to `CC(=O)O/N=C1\C=Cc2c(no[n+]2[O-])C1=O`, for which the GI50 was inactive: 23.1 µM.

As to `CCC1(CC)C(=O)CC[C@@]2(C)C1=CC[C@H]1[C@@H]3CC[C@H](O)[C@@]3(C)CC[C@@H]12`, the GI50 is inactive: 78.2 µM.

On to `CC(CNCCCNCCNCCCNCO)[N+](=O)[O-]` (centres undefined), for which the GI50 was inactive: > 100 µM.

As for `CN(CCCNC(=O)c1nn(-c2ccc(Cl)cc2Cl)c2c1Cc1ccccc1-2)CCCNC(=O)c1nn(-c2ccc(Cl)cc2Cl)c2c1Cc1ccccc1-2`, the GI50 is inactive: 1.76 µM.

For the molecule `O=C(OCc1ccccc1)N1CCCc2c(n(S(=O)(=O)c3ccccc3)c3ccccc23)C1`, the GI50 was inactive: > 100 µM.

For `O=C(ON=c1c2ccccc2ccc2ccccc12)c1ccccc1`, the GI50 was inactive: 36.6 µM.

For `Cn1c(NNc2ccccc2)cc(=O)[nH]c1=O`, the GI50 is inactive: > 100 µM.

As for `O=C1NC(=S)NC(=O)C1C(c1ccc(Cl)cc1)C1C(=O)NC(=S)NC1=O.c1ccncc1`, the GI50 was inactive: > 100 µM.

On to `CN(C=O)/C=C/c1cc(O)ccc1O`, for which the GI50 was inactive: > 100 µM.

With `COC1(C)CCC(OS(C)(=O)=O)CO1` (centres undefined), the GI50 is inactive: > 100 µM.

Regarding `COc1ccc2c(c1)c1c3n2CCNN=C3CCC1`, the GI50 is inactive: > 87.9 µM.

For `CCOC(=O)C1S/C(=N\c2ccc(Cl)c(Cl)c2)N=C1C` (centres undefined), the GI50 was inactive: 55.1 µM.

On to `CC[C@H](C)[C@H](NC(=O)N(CCC#N)CCN(CCN(C(=O)N[C@@H](Cc1ccccc1)C(=O)OC)c1ccccc1)C(=O)N[C@H](C(=O)OC)C(C)C)C(=O)OC`, for which the GI50 was inactive: 18.7 µM.

For `O=C(NC1=NC2C=CC([N+](=O)[O-])=CC2S1)C(=O)Nn1c(S)nc2ccccc2c1=O` (centres undefined), the GI50 was inactive: 45.4 µM.

Turning to `COc1ccc(N2C(=O)CC(=O)N(NC(=O)C(C)Oc3ccccc3C)C2=S)cc1` (centres undefined), the GI50 is inactive: > 100 µM.

Turning to `[N-]=[N+]=Nc1ccc2c(c1)Sc1ccccc1N2CCCCCl`, the GI50 is inactive: > 100 µM.

With `Fc1cc2nc3n(c2cc1F)C(c1c(Cl)cccc1Cl)SC3` (centres undefined), the GI50 was inactive: 20.8 µM.

Turning to `N#CN=C(N(Cc1ccccc1)Cc1ccccc1)N(Cc1ccccc1)Cc1ccccc1`, the GI50 is inactive: > 100 µM.

On to `COc1cc2c(cc1O)c(O)cc1c3cc(OC)c(OC)cc3c[n+](C)c21`, for which the GI50 was inactive: 39.4 µM.

For `COc1nc(C)nc2sc3c(c12)CCCC3`, the GI50 is inactive: > 100 µM.

`O=c1[nH]cnc2c1nnn2C1C=C(CO)C(O)C1O` (centres undefined): the GI50 is inactive: > 100 µM.

With `O=C1C(Cl)=C(N2CCC[C@@H]2CO)C(=O)c2c(O)ccc(O)c21`, the GI50 was active: 0.366 µM.

Turning to `CC(NC(=O)C(OC(=O)C(C)NC(=O)OC(C)(C)C)C(C)C)C(=O)OC(C(=O)O)C(C)C` (centres undefined), the GI50 is inactive: > 100 µM.

For `Oc1ccc(-c2c3ccccc3c(-c3ccc(O)cc3)c3ccccc23)cc1`, the GI50 is inactive: > 100 µM.

On to `COCC(C)(C)/N=C/N1Cc2cc3ccccc3nc2C1`, for which the GI50 is inactive: > 100 µM.

In the case of `C=C1CC[C@@]2(C)[C@@H]([C@@H]1C)[C@H]1CC[C@@H]3[C@@]4(C)CC[C@H](O)C(C)(C)[C@@H]4CC[C@@]3(C)[C@]1(C)C[C@@H]2O`, the GI50 is inactive: 2.4 µM.

Consider `CCOC(=O)c1cccc(/N=N/c2ncc(/C=C/C(=O)OC)[nH]2)c1`, for which the GI50 is inactive: 20.6 µM.

On to `COC(=O)c1oc([N+](=O)[O-])c(-c2ccccc2)c1-c1ccccc1`, for which the GI50 was inactive: 52.7 µM.

As for `CC(C)=CCN1CC(C)C(=O)Nc2cc(Cl)ccc21` (centres undefined), the GI50 was inactive: 25.9 µM.

In the case of `CN(C)c1ccc(/C=C2\C[C@H]3[C@@H]4CC=C5C[C@@H](N6CCCC6)CC[C@]5(C)[C@H]4CC[C@]3(C)[C@H]2O)cc1`, the GI50 is inactive: 1.87 µM.

`OCCCOC(c1ccccc1)(c1ccccc1)c1ccccc1`: the GI50 is inactive: > 100 µM.

`COc1ccc(OC)c(NCC#N)c1`: the GI50 was inactive: > 100 µM.

`Cc1c2c(cc3c1[nH]c1ccccc13)C(c1ccc(Cl)cc1)=NCC2`: the GI50 is active: 0.291 µM.

With `O=C1c2c(Cl)c(Cl)c(Cl)c(Cl)c2C(=O)N1CCN(c1c(Cl)ssc1=O)c1c(Cl)ssc1=O`, the GI50 was inactive: > 100 µM.

On to `NC(=O)NC1C(c2ccccc2)=C1c1ccccc1`, for which the GI50 is inactive: 19.9 µM.

Take `CN(C)C(=S)N/N=C\C(=N/NC(=S)N(C)C)c1ccccc1`: the GI50 was inactive: 4.38 µM.

Take `CO/N=C1\CC(C)N2C(=O)C(C(C)C)NC(=O)C(NC(=O)c3c4nc5c(C(=O)NC6C(=O)NC(C(C)C)C(=O)N7C(C)CC(O)C7C(=O)N(C)CC(=O)N(C)C(C(C)C)C(=O)OC6C)ccc(C)c5oc-4c(C)c(=O)c3N)C(CO)OC(=O)C(C)N(C)C(=O)CN(C)C(=O)C12` (centres undefined): the GI50 was active: 1.05 µM.

Take `CN(C)c1ccc(/C=c2/c3ccccc3n3c2cc(/C=C/c2ccccc2)[n+]3C)cc1`: the GI50 was active: 0.306 µM.

For `CCOc1ccc2c(c1)c(CC(=O)O)cn2C`, the GI50 is inactive: > 100 µM.

On to `CC1=C(C)C(=O)c2c(cc3ccc4ccccc4n23)C1=O`, for which the GI50 was inactive: > 100 µM.

`O=C1OCC(c2ccc(Cl)cc2)=C1Cl`: the GI50 was inactive: 18.4 µM.

With `O=C(N/N=C(COc1ccccc1)\N=C\c1cccnc1)c1ccncc1`, the GI50 is inactive: > 100 µM.

Take `CNC(=O)N(C)C(=O)c1ccccc1C(=O)N(C)C(=O)NC`: the GI50 is inactive: > 10 µM.

As to `CC1CC(=O)C(C(O)CC2CC(=O)N(c3ccccc3)C(=O)C2)C(C)C1` (centres undefined), the GI50 was inactive: > 100 µM.

Take `CCOC(=O)c1ccc(/N=c2\oc3ccc(OC)cc3cc2-c2nc3ccccc3[nH]2)cc1`: the GI50 is inactive: 45.3 µM.

As to `N=C1/C(=C/c2ccccc2)C(=O)N=C2SC=NN12`, the GI50 is inactive: > 100 µM.

For `COc1ccc(OC)c(NC(=O)c2c(Cl)c(Cl)c(Cl)c(Cl)c2-c2nc3ccccc3[nH]2)c1`, the GI50 was inactive: > 100 µM.

As to `O=C(N/N=C/c1ccc(Br)cc1)N/N=C/c1ccc(Br)cc1`, the GI50 is inactive: 5.68 µM.

As for `CCOc1ccc(NC(=O)/C(=C\c2ccc(C)cc2)C(C)=O)cc1`, the GI50 was inactive: > 100 µM.

Take `CCOC(=O)CSc1cc[nH]c(=O)n1`: the GI50 was inactive: > 100 µM.

Turning to `NC(=O)CCC(NC(=O)C(F)(F)F)C(=O)O` (centres undefined), the GI50 is inactive: > 100 µM.

For the molecule `O=C1C=Cc2cscc21`, the GI50 was inactive: > 100 µM.

On to `NNC(=O)CCC(=O)Nc1cc(Cl)c(Cl)cc1Cl`, for which the GI50 is inactive: > 100 µM.

Regarding `CCc1c(O)cc(=O)oc1-c1ccc(OC)c(OC)c1`, the GI50 was inactive: > 100 µM.

Consider `CC(=O)OC1CC2C(C)(C)C(=O)C=CC2(C)C2CCC3(C)C(c4ccoc4)OC(=O)C4OC43C12C` (centres undefined), for which the GI50 was inactive: 7.33 µM.

In the case of `O=[N+]([O-])/C=C/c1cc(Cl)c(/C=C/[N+](=O)[O-])cc1Cl`, the GI50 is inactive: 15.2 µM.

For `Cn1nc2n(c1=O)CCCN2`, the GI50 is inactive: > 100 µM.

For the molecule `O=C1CC(C2(O)C(=O)Nc3ccc([N+](=O)[O-])cc32)c2ccccc21` (centres undefined), the GI50 is inactive: 46.2 µM.

As to `C[C@@H]1CCC2[C@@H](C)[C@@H](O[C@H]3O[C@@H]4O[C@@]5(C)CCC6[C@H](C)CCC([C@H]3C)[C@]64OO5)O[C@@H]3O[C@@]4(C)CCC1[C@@]23OO4` (some centres undefined), the GI50 is inactive: > 25 µM.

On to `CCCCCC(/C=C/C1CCC(=O)C1CC#C[Si](C)(C)C)OCc1ccccc1` (centres undefined), for which the GI50 was inactive: 28.8 µM.

For the molecule `C#CC(O)/C=C/C(O)CCCC(O)CC#CC(O)C#CC(O)CCCC(O)/C=C/CCCC(=O)CCCCCCCCCCCCCCCC(O)C(O)C#CC(=O)O` (centres undefined), the GI50 was inactive: > 50 µM.

`CCCCc1c2c(nc3c1CCc1cc(C=O)c(N)nc1-3)/C(=C/c1ccccc1)CCC2`: the GI50 is inactive: > 100 µM.

Consider `Cc1cc(O)nc(CNC(=O)c2cccc3ccccc23)n1`, for which the GI50 is inactive: > 100 µM.

With `CN1C(=O)C2C3C=C4c5ccccc5N(c5ccccc5)C4(C2C1=O)[C@H]1C(=O)N(C)C(=O)[C@@H]31` (some centres undefined), the GI50 was inactive: > 100 µM.

In the case of `Cc1ccc(/C=C2\CN(C)CC3C2=NN(c2ccccc2)C3c2ccc(C)cc2)cc1` (centres undefined), the GI50 is inactive: > 100 µM.

As to `CCCNC(=O)CCC(C)[C@H]1CCC2C3C(C[C@H](OC(C)=O)[C@@]21C)[C@@]1(C)CCC2(C[C@H]1C[C@H]3OC(C)=O)OOC1(CCCCC1)OO2` (some centres undefined), the GI50 is inactive: 12.5 µM.

For the origin of these results see ChEMBL document CHEMBL1201862, “PubChem BioAssay data set” (2004).
